Measurements taken from PubChem BioAssay AID1508624 (National Center for Advancing Translational Sciences (NCATS), 2021).
About 120 (0.25%) of roughly 48,000 compounds were called active. Inconclusive results (about 4%) are left out. Calls come from the whole dose curve; as a rule, active = well fitted activation curve with a large enough effect; inconclusive = small, poorly fitted or top-dose-only effect, or another doubt; inactive = no such curve, though single readings can be large or run the other way. Some of the results follow.

Assay: Primary qHTS for Identification of Small Molecule Activators of Huntingtin-Antisense Promoter Activity; note: nearly all actives have a fitted effect of over 55% in size
Details: HEK293 HTT-AS promoter firefly luciferase reporter, 24 h; series mostly up to 57.5 µM; activity change, positive = activation: at the top concentration
Summary of the method: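 Firefly luciferase readout (Dual-Glo, 10 min RT) after 24 h, 37 °C compound exposure (final up to 57.5 uM) of HEK293 reporter cells cultured 24 h beforehand; PTC124 at 50 uM final as control inhibitor; activity scaled vehicle 0%, zero RLU -100%.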

SMILES | activity change, positive = activation
CC(=O)O[C@]1(C(C)=O)CC[C@H]2[C@@H]3C=C(C)C4=CC(=O)CC[C@]4(C)[C@H]3CC[C@@]21C | inactive: -3.25%
CCc1cc(C(=O)Nc2c(C)nn(Cc3ccccc3Cl)c2C)no1 | inactive: -13.4%
Cc1cc(C)c(NC(=O)CN2C(=O)c3cccnc3Sc3ccccc32)c(C)c1 | inactive: 18.3%
O=C(CCC(=O)N1CC2CCCN2c2ccccc21)NCc1ccc(F)cc1 (stereo not given) | inactive: -2.05%
CCc1ccc(NC(=O)CC2C(=O)NCCN2C(=O)c2ccc(F)cc2)cc1 (stereo not given) | inactive: -4.21%
COc1ccc(S(=O)(=O)c2c(Nc3ccccc3F)sc(C(=O)c3cccc(OC)c3)c2N)cc1 | inactive: -42.3%
CCOCCOC(=O)/C=C/c1ccc(OC)cc1 | inactive: 27.4%
CCCC(CCC)(C(=O)OCC)C(=O)OCC | inactive: -1.03%
COc1cccc(C2CC(=O)Nc3c2ccc(C)c3C)c1OC (stereo not given) | inactive: -28.8%
CCOc1ccccc1CNC(=O)c1ccc(CS(=O)Cc2cccc(Cl)c2)o1 (stereo not given) | inactive: -15.4%
Cc1cccc(NC(=O)CSc2nnc(NC(=O)Nc3ccccc3)s2)c1C | inactive: -9.28%
CSc1ccc(C2C(C(=O)Nc3ccccc3)=C(C)Nc3nc4ccccc4n32)cc1 (stereo not given) | inactive: -8.48%
CSc1ccc(CNC(=O)Cn2nc(N3CCN(c4ccccc4)CC3)ccc2=O)cc1 | inactive: -19%
Cc1ccccc1CNC(=O)C(=O)NCC(c1ccco1)S(=O)(=O)c1cccs1 (stereo not given) | inactive: -2.35%
NC[C@H]1O[C@H](O[C@H]2[C@H](O)[C@@H](O[C@H]3O[C@H](CO)[C@@H](O)[C@H](N)[C@H]3O)[C@H](N)C[C@@H]2N)[C@H](N)[C@@H](O)[C@@H]1O | inactive: -9.99% [at 25.1 µM, percent change from vehicle, -100% = no light]
CCc1ccc(-n2nc(CO)c(C(=O)NCCc3ccccc3)n2)cc1 | inactive: 3.33%
O=C(CSc1nc2c([nH]c3ccccc32)c(=O)n1-c1ccc(F)cc1)N1CCc2ccccc21 | inactive: -18.9%
Cc1cc(C)cc(-n2c(SCC(=O)N3CCC(C)CC3)nc3c([nH]c4ccccc43)c2=O)c1 | inactive: -15.8%
Cc1ccc(C)c(N2CCN(C(=O)Cc3c(C(=O)O)c(C)cn3C)CC2)c1 | inactive: -9.77%
COc1cccc(C(=O)N2CCCCC2CCN2CCCCC2)c1 (stereo not given) | inactive: -3.29%

SMILES | activity change, positive = activation
NC(=O)c1cnc(-c2ccc(C3(N)CCC3)cc2)c(-c2ccccc2)c1 | inactive: -13.2%
Cc1oc(-c2ccccc2F)nc1CS(=O)CC(=O)NC(C)C (stereo not given) | inactive: -4.33%
COc1ccc(OC)c(NC(=O)c2cccc3c2C(=O)N(C2CCCCC2)C3)c1 | inactive: -13.9%
Cc1cccc(Cn2c(CNS(=O)(=O)c3ccc(C(C)C)cc3)nc3cccnc32)c1 | inactive: -23.1%
O=S(=O)(c1ccc(F)cc1)N(CC(O)Cn1c2ccccc2c2ccccc21)c1ccccc1 (stereo not given) | inactive: -41.6%
COc1ccc(C(=O)NCC(c2ccc3c(c2)OCO3)N2CCN(C)CC2)cc1 (stereo not given) | inactive: -3.94%
CCOc1ccc(CCNC(=O)c2nnc(Cc3ccc(Cl)cc3Cl)o2)cc1OCC | inactive: -12.7%
COc1cc(OC)c(N(C)C(=O)c2c(C)oc3ncnc(N4CCCCC4)c23)cc1Cl | inactive: -23%
CCOC(=O)c1cc2c(=O)n3ccccc3nc2n(CC2CCCO2)c1=NC(=O)c1ccccc1C (stereo not given) | inactive: -3.68%
CCn1cc(/C=C(\NC(=O)c2ccc(C)cc2)C(=O)NCCCn2ccnc2)c2ccccc21 | inactive: -14.3%
CCOc1ccc2nc(N3CCN(C(=O)c4ccco4)CC3)sc2c1 | inactive: 33.1%
Cc1ccc2c(=O)cc(C(=O)NCc3ccccc3)oc2c1 | inactive: -20.3%
COc1ccc(CNC(=O)C2CCCN(S(=O)(=O)c3ccc4c(ccn4C)c3)C2)c(OC)c1 (stereo not given) | inactive: -29.2%
COc1ccc(NC(C)=O)cc1NC(=O)C1(c2cccs2)CCOCC1 | inactive: 0%
COc1ccc(C2=NC(C)(C)N(CC(=O)Nc3cc(OC)cc(OC)c3)C2=O)cc1 | inactive: -1.71%
CN(c1ccc(F)cc1)S(=O)(=O)N1CCCC(C(=O)NCCc2ccccc2)C1 (stereo not given) | inactive: -13.3%
Cn1c2cc(S(C)=O)sc2c2cnn(Cc3cccc(N)c3)c(=O)c21 (stereo not given) | inactive: -14.3%
Cc1ccc(-c2cc3nccc(-c4cc([N+](=O)[O-])ccc4O)n3n2)cc1 | inactive: -70.8%
CCOc1ccc(S(=O)(=O)NCc2nc3cccnc3n2Cc2ccccc2OC)cc1 | inactive: -20.1%
CCCCNC(=O)CSc1nc2n[nH]c(C)c2c(=N)n1-c1cccc(C)c1 | inactive: -25.5%

SMILES | activity change, positive = activation
Cc1c(C(=O)OC2CCCCCC2)[nH]c2c1C(=O)CC(c1ccccc1)C2 (stereo not given) | inactive: -25.3%
Cc1nc2ccc(S(=O)(=O)NC(CC(C)C)C(=O)NCc3ccc(Cl)cc3)cc2s1 (stereo not given) | inactive: -31.1%
C[C@@H]1O[C@@H](OC[C@H]2O[C@@H](Oc3c(-c4ccc(O)c(O)c4)oc4cc(O)cc(O)c4c3=O)[C@H](O)[C@@H](O)[C@@H]2O)[C@H](O)[C@H](O)[C@H]1O | inactive: 1.58%
COc1cc(NC(=O)CN2CCCN(S(=O)(=O)c3ccc(F)cc3)CC2)cc(OC)c1 | inactive: -10.2%
O=C(Nc1ccccc1Br)c1cc(S(=O)(=O)NC2CCCCC2)ccc1F | inactive: -28.7%
CCOC(=O)c1cc(S(=O)(=O)Nc2c(C)cc(C)cc2C)[nH]n1 | inactive: -18.7%
CC(=O)NC(C)c1nc2ccccc2n1Cc1ccccc1Cl (stereo not given) | inactive: -10.7%
CCOC(=O)N1CCN(c2ncc3c(n2)CC(c2ccc(Cl)cc2)CC3=O)CC1 (stereo not given) | inactive: -3.48%
Cc1ccc(C)c(NC(=O)C2CCCN2S(=O)(=O)c2ccc3c(c2)n(C)c(=O)c(=O)n3C)c1 (stereo not given) | inactive: 1.37%
COc1ccc(C2C(C(=O)Nc3cccnc3)=C(C)Nc3nc(SCc4ccccc4)nn32)cc1 (stereo not given) | inactive: -12.7%
CCOCCCNC(=O)c1ccc(Cn2c(=O)c3cccn3c3cccnc32)cc1 | inactive: -24.8%
COc1cc(-c2noc(-c3ccc(NC4CCCC4)c([N+](=O)[O-])c3)n2)cc(OC)c1OC | inactive: -6.56%
CCOC(=O)CCCCN(Cc1ccccc1F)S(=O)(=O)c1ccc(F)c(C(=O)Nc2cc(Cl)cc(Cl)c2)c1 | inactive: -24.1%
CCOc1ccc(NC(=O)Nc2cc3c(cc2N2CCCCC2)n(C)c(=O)n3C)cc1 | inactive: -37.3%
O=C(NCc1ccc(F)cc1)c1nnc(Cc2cccc(F)c2)o1 | inactive: -18.5%
COc1ccc(-c2noc(-c3cc(-c4ccc(F)cc4)n[nH]3)n2)cc1 | inactive: -13.5%
CC(C)c1ccc(NC(=O)c2cnc3sc(N4CCCC4)nn3c2=O)cc1 | inactive: -24.5%
CCOc1ccc(-c2nonc2NC(=O)c2ccco2)cc1OCC | inactive: 0.113%
CCOC(=O)c1ccc(NC(=O)CC2C(=O)N(c3cccc(C)c3)C(=O)N2CCOC)cc1 (stereo not given) | inactive: 0%
COc1ccc(OC)c(-c2csc(-c3c(N)c(C(=O)c4ccc(Cl)cc4)n4ccccc34)n2)c1 | inactive: -4.64%
